{
  "source": "paper PMC12136788",
  "binders": {"B1": {"name": "chr16:94664741:94664742:+_ENSMUSG00000040785_ENSMUST00000117648|mus_hu|mus_mus_mus_hu_False|1_68 (ssRNA)", "RNA": "GGGAGUUCUACAGUCCGACGAUCUGGUACUGAUCUUGGUAGCUGAUAUUCAGGAGAAAGGCUGGCCAAAGGUGUGUAUAUGCUGGUGUACUGGGGCAAACCUGGUAACACGUUUAUGUAUGCUGGCGGUGUCUGGGUGCCAAACAACAGAGGAUUGAGCAUCA"}, "B2": {"name": "chr21:38862523:38862524:+_ENSG00000157540_ENST00000338785|hu_hu|FALSE|FALSE (ssRNA)", "RNA": "GGGAGUUCUACAGUCCGACGAUCUCGGAAAUUGGUGUUUCUCAGCAAGUCAUAGAGGUUGUAGGACAGCAUUUCAAAAACUAAACAGAGAUGGUUUCGAAACAUAAAGUGGCGUUUCAAAUGCACUAUGUAGUAUUUCAUUUCCAACAGAGGAUUGAGCAUCA"}, "B3": {"name": "59343180_59345790_473_CDS_ENSG00000215114_ENST00000399598|human|control|control (ssRNA)", "RNA": "GGGAGUUCUACAGUCCGACGAUCAUUUUCUCCAUAGAUAUAUUCAGACCGCUUACAAAAAGAACUACCCAAUCUGUAUCCUCCACCUGUAAAUGACUUAGAUUUAUCAUCACCUGAAGCUCUUGUGGCUUCAUUCAGAGGGACCAACAGAGGAUUGAGCAUCA"}, "B4": {"name": "chr1:163117127:163117128:-_ENSG00000143248_ENST00000313961|hu_mus|hu_hu_hu_mus_False|78_88 (ssRNA)", "RNA": "GGGAGUUCUACAGUCCGACGAUCUGCUACAAAGGAUGUAACUCAACACUCACAGGAUGAUUUCAUAGCCUGACCAGAUGACUACUUGAUUAGCUCCUUAUAAAAUUCAGAGCGCACAAAGCGGGGCAGAGAAUCCUUCUCCAUCAACAGAGGAUUGAGCAUCA"}, "B5": {"name": "chr7:141438946:141438947:+_ENSG00000106028_ENST00000265304|hu_mus|hu_hu_hu_mus_True|28_38 (ssRNA)", "RNA": "GGGAGUUCUACAGUCCGACGAUCGACGAAAUACCUGUAACACAGGUCUUCGAAACAUGGCUUCUGUUUUUCUUACAACCUAAUCUUUAGGCUUUUCCUGACGAUCUAACCCGAGCAAGAAAAAUGAUAAAUCAAGAAACUACACAACAGAGGAUUGAGCAUCA"}, "B6": {"name": "chr7:141438946:141438947:+_ENSG00000106028_ENST00000265304|hu_mus|hu_hu_hu_mus_True|88_108 (ssRNA)", "RNA": "GGGAGUUCUACAGUCCGACGAUCGACUACCUGUAAUUAACACAGGUGAAACAUGGCUGGCUUCUGUUUUUCUUACAACCUAAUCUUUAGGCUUUUCCUAAAGGAAAGAAAGAAAAGAGAAAAAUGAUAAAUCAAGAAACUACACAACAGAGGAUUGAGCAUCA"}, "B7": {"name": "chr9:64576133:64576134:-_ENSMUSG00000004771_ENSMUST00000172298|mus_hu|FALSE|FALSE (ssRNA)", "RNA": "GGGAGUUCUACAGUCCGACGAUCUGUCCCAUAUCUGUGCCUUUAUUGUUUUUCCAUCAACCUGGAUGCUUCUUGUUGCAAACUCUACUCCAAUGGUGCUCUUGCUUUCCAGAUUAAACUCAUUUCGAGUAAAUCGAGACAGGACAACAGAGGAUUGAGCAUCA"}, "B8": {"name": "90661390_90661510_1077_3pUTR_ENSG00000112182_ENST00000537989|human|control|control (ssRNA)", "RNA": "GGGAGUUCUACAGUCCGACGAUCUUCCGGCACACAAACAGGCCAUCCUCACUGUUCAGGAGCUGGGUCUGCAGGAAGCUGAAGCAGGAGUCCUCCAGGUUGUGCAUGCGCAGGAACUCAGCACAGCGGAUGACCUCGCGGAUGCAACAGAGGAUUGAGCAUCA"}, "B9": {"name": "chr3:179287964:179287965:+_ENSG00000136518_ENST00000429709|hu_hu|hu_hu_hu_mus_True|1_68 (ssRNA)", "RNA": "GGGAGUUCUACAGUCCGACGAUCCUUGAGUGGUGAGAUGGCCUCCAUGUUCUCCCUGGGCACGCGGAGAGCAUUAGUGUCUAUGUAGUAGGUGGGCCCGCCCUGCUUGCCUUUGUCACCAUCAAUCUCCAUCAUUGUGCUUCCCAACAGAGGAUUGAGCAUCA"}, "B10": {"name": "chr17:65740002:65740003:+_ENSG00000130935_ENST00000581375|hu_hu|hu_hu_hu_mus_False|78_98 (ssRNA)", "RNA": "GGGAGUUCUACAGUCCGACGAUCAACAAAUCUUUCUCUGGAUGAAGAACAGGAAGACAUAAAAGAGAAAAAAUAUAUAUCCAUCAAGUUAGGUGUGGUGGCCACACCUUUACUCCCAGCACUUUGGGAGGUGGAUCUCUGAGUCAACAGAGGAUUGAGCAUCA"}, "B11": {"name": "57673579_57674608_1111_CDS_ENSMUSG00000062190_ENSMUST00000050077|mouse|control|control (ssRNA)", "RNA": "GGGAGUUCUACAGUCCGACGAUCGGGGCAGCGCUCAGAUUUCCUUUCUUCCCUUGAUAGACUCUUUCCCGACUCAAUAAUAGCACUGACUACCUCUUUAAUAGCUGUCUCACCAACAGUGCCAGGGCCAAUCUCUGUGUUCAGCAACAGAGGAUUGAGCAUCA"}, "B12": {"name": "27831831_27832786_1487_CDS_ENSG00000106052_ENST00000265393|human|control|control (ssRNA)", "RNA": "GGGAGUUCUACAGUCCGACGAUCUUCCUUAAAUUUUUCUUUAUAAUGGUCUGCAGCCAUCUGAAGACGGAGUUUCAGAUCUUCAACUUCUCUUCUUAGUUCGUGUUCCAGUGUAUCAGUCUUGUCCUGAUCUUUUUUCAUAGCCAACAGAGGAUUGAGCAUCA"}, "B13": {"name": "chr4:104905227:104905228:+_ENSMUSG00000028517_ENSMUST00000064139|mus_mus|motif|central (ssRNA)", "RNA": "GGGAGUUCUACAGUCCGACGAUCAACGGAAUCUUACAAAAAUACUGACAAUUUAAUGUUUUUAUACAGUUUUUUUUCUCGGGUUGCAGUUAUUUCAUUGUAAAACAAUGGCUACCACAGAACUAUAUCUUUAGUUGAGAUUAACAACAGAGGAUUGAGCAUCA"}, "B14": {"name": "chr8:104442852:104442853:+_ENSG00000164934_ENST00000297579|hu_mus|FALSE|FALSE (ssRNA)", "RNA": "GGGAGUUCUACAGUCCGACGAUCCCUCAUUUCCAGGAUAACCUUUUUCAAAGGAGUAGCUUGCCGCAUAUCAUACAGUACUAUAUUCCUAUCAGAAGCACAACUUCCCAAGAGAAAUGUCUCAACAGGGUUAAAUUUAACACUCAACAGAGGAUUGAGCAUCA"}, "B15": {"name": "chr8:24301720:24301721:-_ENSMUSG00000031545_ENSMUST00000167004|mus_hu|FALSE|FALSE (ssRNA)", "RNA": "GGGAGUUCUACAGUCCGACGAUCUUCCAGAGGUUUUACAUGGUUUUCCUGCCCAAGAGCAUUCAACAGAUAAAUCUGUCCUGCAGAUCUGUCACUACCAGAAGUACGAAGAAGAAUUAAACUUGGUGCCAGAAAAAUCCUGAUCAACAGAGGAUUGAGCAUCA"}, "B16": {"name": "chr14:102368134:102368135:+_ENSG00000078304_ENST00000445439|hu_mus|FALSE|FALSE (ssRNA)", "RNA": "GGGAGUUCUACAGUCCGACGAUCAAGAGGCUCCAUGAUCUUCACAAACUCUGAUGGUUCAAUUACAUCUAAAAUUUCUUCUAAUUCAUUUAAGAACAUUACUUCUUUUGGACUGUGAGUCUUUGGCCAGUAUUUGAGAAGUGCCAACAGAGGAUUGAGCAUCA"}, "B17": {"name": "chr10:120830595:120830596:-_ENSG00000107581_ENST00000369144|hu_hu|FALSE|FALSE (ssRNA)", "RNA": "GGGAGUUCUACAGUCCGACGAUCUUUGAAAGCUUGCUGGGCAAUAUCAUGGUACAGGCGCUCUACUCUAGAAUUGUUUCUAAGAAGGUCCAAACACUGCCUGUAAGACUCCCACAGGAAUUUAACCCAUGGAGUUAAAAGUAACAACAGAGGAUUGAGCAUCA"}, "B18": {"name": "chr12:101444792:101444793:+_ENSMUSG00000001175_ENSMUST00000110082|mus_hu|FALSE|FALSE (ssRNA)", "RNA": "GGGAGUUCUACAGUCCGACGAUCGAUGUGUAGCUUGAUCUUUAGGGGACAGGACCACCAACCAAUACAUGCAGAUUUUGUGUGUGUGGACAGAAGGUACUUUUGACAUUCAGUUUUGCUAUAUAGAAACAGAAUGAAUAAAUGCAACAGAGGAUUGAGCAUCA"}, "B19": {"name": "chr2:216981417:216981418:+_ENSG00000079246_ENST00000392132|hu_hu|hu_hu_hu_mus_True|1_8 (ssRNA)", "RNA": "GGGAGUUCUACAGUCCGACGAUCCUGAUACUGGUCCUUGCCAGCAAGGGCAUUAUCAGUGCCAUCUGUGCCAUAGAGGACUAACGCAAUCUCAUCUUUGCUCUCCGAAAAUACCUGUCGUUGGACAAACAUGGUUAUCACCUUCAACAGAGGAUUGAGCAUCA"}, "B20": {"name": "chr4:144449117:144449118:+_ENSG00000153147_ENST00000283131|hu_hu|FALSE|FALSE (ssRNA)", "RNA": "GGGAGUUCUACAGUCCGACGAUCCACUAUUUCUGACAACUUAGAUUUUUCAUUUUUGAUCCUGUGAGCUUCAUCUAUUACUAAGUAUCUCCAAUUAAAUUUUUUGAACACAGACUUCUCUUUAAUAAGCAUUUCAUAAGAUGUCAACAGAGGAUUGAGCAUCA"}, "B21": {"name": "chrX:69798090:69798091:-_ENSMUSG00000031343_ENSMUST00000055966|mus_mus|mus_mus_mus_hu_False|28_48 (ssRNA)", "RNA": "GGGAGUUCUACAGUCCGACGAUCAAGUCCCCGGGUUCUUGUCGUCUUGAUUCCCCUUGACCAGUGGUUCCAGGGAGAAUAUUAAUCAGGAGAAGAAUCCCAAGGCUGGUCACAUAACAGUGACUUGUUUGUGUGAUUAUCAUCCAACAGAGGAUUGAGCAUCA"}, "B22": {"name": "chr4:140556289:140556290:+_ENSMUSG00000036622_ENSMUST00000037055|mus_mus|mus_mus_mus_hu_False|1_38 (ssRNA)", "RNA": "GGGAGUUCUACAGUCCGACGAUCGAUGGAGCUCACCAGGCCCCCUUUUGCCGUGCAGAACCCUGUGCGGGUCACCACUGCCAGGACGUGCGGUCCCACGUAGGCUCGGGCCUGCAAGAUGAGGGUCCCGCAGAAGAGGGUGUGCAACAGAGGAUUGAGCAUCA"}},
  "note": "The list shows a part of the results.",
  "data": [
    {"molecular_target": "T1, UNK ZnF1-3 (human, UniProt Q9C0B0 31-174)", "T1 sequence": "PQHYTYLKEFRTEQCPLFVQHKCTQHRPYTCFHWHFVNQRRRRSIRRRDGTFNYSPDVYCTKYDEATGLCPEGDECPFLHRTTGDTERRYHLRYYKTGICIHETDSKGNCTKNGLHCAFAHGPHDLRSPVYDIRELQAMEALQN", "experiment": "nsRBNS (natural sequence RNA bind-n-seq); RBNS binding buffer (assumed for nsRBNS): 25 mM Tris pH 7.5, 150 mM KCl, 3 mM MgCl2, 0.01% Triton X-100, 500 ug/ml BSA, 20 U/ml SUPERase-In, 4 C; UNK is unkempt and MSI1 is Musashi-1; names of the RNAs are library labels; protein concentration not given here; high values mean tight binding", "units": {"binding signal": "enrichment R"}, "values": [
      {"binder": "B1", "binding signal": 1.06},
      {"binder": "B2", "binding signal": 0.85},
      {"binder": "B3", "binding signal": 1.39},
      {"binder": "B4", "binding signal": 1.16},
      {"binder": "B5", "binding signal": 1.1},
      {"binder": "B6", "binding signal": 0.86},
      {"binder": "B7", "binding signal": 0.65},
      {"binder": "B8", "binding signal": 1},
      {"binder": "B9", "binding signal": 0.806},
      {"binder": "B10", "binding signal": 1.32},
      {"binder": "B11", "binding signal": 0.957},
      {"binder": "B12", "binding signal": 0.467},
      {"binder": "B13", "binding signal": 0.434},
      {"binder": "B14", "binding signal": 1.26},
      {"binder": "B15", "binding signal": 1.34},
      {"binder": "B16", "binding signal": 0.737},
      {"binder": "B17", "binding signal": 0.815},
      {"binder": "B18", "binding signal": 1.57},
      {"binder": "B19", "binding signal": 0.687},
      {"binder": "B20", "binding signal": 1.51},
      {"binder": "B21", "binding signal": 0.538},
      {"binder": "B22", "binding signal": 0.381}
    ]}
  ]
}
